Measurements published in PubChem BioAssay AID1159614 (National Center for Advancing Translational Sciences (NCATS), 2016).
The campaign covered roughly 45,000 compounds. About 65 (0.1%) were called active. Calls follow the shape of the dose curve; as a rule, active = well fitted activation curve with a large enough effect; inconclusive = small, poorly fitted or top-dose-only effect; inactive = no such curve, though single readings can be large or run the other way. Some of the results follow.

Each compound was assayed against Galactocerebrosidase (Homo sapiens) (UniProt P54803) (assay: A Novel Cell-Based Assay to Identify Small Molecules for B -Galactocerebrosidase). Conditions: 145M-Twi-hGALC-G270D cells (Twitcher mouse brain line with human GALC G270D), HMU-beta-Gal fluorescence, 48 h; series mostly up to 57.5 µM; activation: at the top concentration.
UniProt P54803, sequence (P54803 whole entry, looked up): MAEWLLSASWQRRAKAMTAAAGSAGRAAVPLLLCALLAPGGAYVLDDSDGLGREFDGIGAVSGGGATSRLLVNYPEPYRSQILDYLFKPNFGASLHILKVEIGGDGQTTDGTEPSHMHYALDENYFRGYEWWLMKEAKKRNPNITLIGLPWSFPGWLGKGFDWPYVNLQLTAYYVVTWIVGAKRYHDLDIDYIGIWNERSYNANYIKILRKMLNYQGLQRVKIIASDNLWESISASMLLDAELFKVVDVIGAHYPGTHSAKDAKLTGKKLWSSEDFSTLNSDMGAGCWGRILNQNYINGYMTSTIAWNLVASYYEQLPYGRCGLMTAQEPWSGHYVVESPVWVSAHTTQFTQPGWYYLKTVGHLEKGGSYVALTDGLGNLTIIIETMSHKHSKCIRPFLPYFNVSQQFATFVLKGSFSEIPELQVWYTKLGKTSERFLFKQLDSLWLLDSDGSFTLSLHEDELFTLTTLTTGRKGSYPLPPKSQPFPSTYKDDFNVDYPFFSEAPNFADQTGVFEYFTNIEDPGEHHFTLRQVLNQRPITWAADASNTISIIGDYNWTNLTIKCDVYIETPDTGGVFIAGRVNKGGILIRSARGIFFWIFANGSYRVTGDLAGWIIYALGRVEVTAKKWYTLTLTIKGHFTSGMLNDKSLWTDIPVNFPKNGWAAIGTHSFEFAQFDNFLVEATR
In short: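 Live 145M-Twi cells (Twitcher mouse brain-derived, GALC-null) stably expressing human GALC-G270D, with a wild-type GALC line, were compound-treated. Residual GALC activity was then read as fluorescence from 0.1 mM final HMU-β-gal at pH 5.2; higher signal means activation.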
Also: 0% is about no effect; nearly all actives have a fitted effect of over 65% in size.

activation, inactive:
CCOC(=O)c1c(NC(=O)CSc2cn(CCNC(=O)c3ccccc3F)c3ccccc23)sc2c1CCCC2 9.6%
CCCCN1CCCC[C@H]1C(=O)Nc1c(C)cccc1C -9.62%
O=C(Cn1c(=O)n(-c2ccc(Cl)cc2)c(=O)c2c3c(sc21)CCC3)c1ccccc1 -19.4%
COCCCNC(=O)c1ccc2c(c1)NC(=O)C(C(C)C)N2 (stereo unspecified) -0.304%
CC(C)(C)OC(=O)N1CCC(c2c(C(=O)N3CCN(C(=O)c4ccco4)CC3)cnn2-c2ccccc2Cl)CC1 -9.48%
COc1ccc(CCN2C(=O)CN(C3CCC(C)CC3)C(=O)C2c2ccc(OC(C)C)c(OC)c2)cc1OC (stereo unspecified) -15.3%
Cc1ccccc1C(=O)c1cccn1CC(=O)NCc1cccc(Cl)c1 -13.3%
CC(C)(C)NC(=O)c1oc2ccccc2c1NC(=O)c1ccc(F)cc1 -18.7%
Cn1c(SCc2ccccc2F)nc2c([nH]c3ccccc32)c1=O -2.11%
CCc1nn(CCCC(=O)NC(C)c2ccccc2)c(=O)c2cc3occc3n12 (stereo unspecified) -10.7%
CCCCNC(=O)C(CC)Sc1nc2ccccc2c(=O)n1CCc1ccc(OC)c(OC)c1 (stereo unspecified) -2.46%
Cc1ccc(Cn2cc(CCC(=O)NCc3ccc(OC(C)C)cc3)c3ccccc32)cc1 -8.74%
COCCN(CCOC)c1ncnc2c1c(-c1ccccc1)cn2-c1ccc(C)c(Cl)c1 -3.78%
CCn1c2ccccc2c2cc(CN3CCN(Cc4ccccc4C)CC3)ccc21 -2.71%
COc1ccc(C)cc1NC(=O)c1ccc2c(c1)nnn2C1CCCC1 6.09%
COc1ccccc1C(=O)Nc1ccc(OCc2cc(=O)n3cc(C)sc3n2)cc1 -15.5%
Cc1ccc(NC(=O)Cn2c(=O)n(Cc3ccc4c(c3)OCO4)c(=O)c3ccc(C(=O)NC4CCCCC4)cc32)c(C)c1 -21.4%
CCc1ccc(NC(=O)Cn2c(-c3cncs3)nc3ccccc32)cc1 -9.4%
c1ccc(OCCn2c(COc3ccccc3)nc3ccccc32)cc1 -4.76%
O=C1c2oc3ccccc3c(=O)c2C(c2cccc(Cl)c2)N1c1ccccn1 (stereo unspecified) -14%
Cc1ccc2[nH]c(=O)c3cc(C(=O)NCCc4ccc(Cl)cc4)sc3c2c1 -17.6%
O=C(c1ccc2c(c1)N(Cc1cccc(Cl)c1)C(=O)c1ccccc1S2)N1CCOCC1 -7.45%
Cc1cc2nc(-c3ccc(OCc4ccccc4)cc3)cc(C(F)(F)F)n2n1 -6.62%
CCc1ccc(NC(=O)c2cnc3sc(N4CCCC4)nn3c2=O)cc1 0.0045%
CN1CCN(C(CNC(=O)C(=O)Nc2cccc(Cl)c2)c2ccc3c(c2)OCO3)CC1 (stereo unspecified) -13.2%
O=C(Cn1c(=O)c2cccn2c2cccnc21)NCc1ccccc1F -1.84%
CC1=C(C(=O)Nc2ccc(C)cc2C)C(c2ccccc2F)n2nc(SCC(=O)c3ccc(C)cc3)nc2N1 (stereo unspecified) -14.9%
O=C(Nc1ccc(S(=O)(=O)N2CCCCCC2)cc1)c1cc(=O)c2ccccc2o1 -9.89%
Cc1cc(-n2c(C)nc3ccccc3c2=O)ccc1NC(=O)c1ccc([N+](=O)[O-])cc1 -14.8%
COc1ccccc1NC(=O)C1CCC(CNS(=O)(=O)c2ccc3c(c2)CC(C)N3C(C)=O)CC1 (stereo unspecified) -12.3%
Cc1ccc(-c2nn3c(=O)cc(CN4CCN(C(=O)Nc5cc(Cl)ccc5C)CC4)nc3s2)cc1 -0.537%
Cc1cc(C)cc(OCC(=O)N(Cc2ccc(C)o2)C2CCS(=O)(=O)C2)c1 (stereo unspecified) -15.2%
CCOC(=O)c1c(C)sc(-c2c(-c3ccc(OC)c(F)c3)[nH]c3c2c(=O)[nH]c(=O)n3C)c1O -14.3%
Clc1ccc(C(c2ccccc2Cl)C(Cl)Cl)cc1 (stereo unspecified) -16.7%
CC(C)Oc1ccc(CNC(=O)c2ccc3nc(Cc4ccccc4)oc3c2)cc1 -15.1%
CCC(CC)C(=O)Nc1ccc2nc(SCC(=O)N3c4ccccc4CC3C)sc2c1 (stereo unspecified) -15.7%
COc1cccc(N(CC(=O)N2CCC(C)CC2)S(=O)(=O)c2ccc(C)cc2)c1 19.2%
COCCNC(=O)c1cc2c(Cl)nc3ccc(C)cc3c2s1 -6%
Cc1ccc(CN(Cc2ccco2)C(=O)c2oc3c(C)c(C)ccc3c2C)cc1 -12.8%
COc1ccc(Cl)cc1NC(=O)c1c(NCc2ccc(C)o2)sc2c1CCCC2 -10.6%
CCC(C)NC(=O)CSc1nc2cc3c(cc2c(=O)n1CCCC(=O)NCc1ccc2c(c1)OCO2)OCO3 (stereo unspecified) -11.8%
CN(C)c1ccc(C(=C2C=CC(=[N+](C)C)C=C2)c2ccccc2)cc1 -9.49%
COc1cc(OC)c(Nc2ncnc3onc(-c4cccc(Cl)c4)c23)cc1Cl -0.0376%
CC(C)c1ccc(Nc2ncnc3c2c(-c2ccccc2)cn3-c2ccccc2)cc1 -13.9%
COc1ccccc1CNC(=O)Cn1nc(C)c2nn(-c3ccc(Cl)cc3)c(C)c2c1=O -21%
Cc1cc(C)cc(NC(=O)C2(c3cccs3)CCOCC2)c1 -9.5%
CCc1ccc(NC(=O)CSc2nnc(-c3cc4occc4n3C)n2-c2ccccc2C)cc1 -14.8%
Clc1ccccc1Cc1cn2cc(-c3ccccc3)nc2s1 8.71%
O=C1O[C@H]([C@@H](O)CO)C(O)=C1O -14.6%
CCCCOc1ccc(C2=NC(c3ccccc3)=Nc3ccc(OC)cc3N2)cc1 -12%
Cn1c(=O)c2c(-c3ccccc3Br)n(CCc3ccccc3)cc2n(C)c1=O -23.1%
C=CCc1c(C)nc2nc(SCC(=O)Nc3ccc(OCC)cc3)nn2c1C -8.3%
COc1cccc(CNC(=O)Cn2ccc3cc(S(=O)(=O)N4CCC(C)CC4)ccc32)c1 -10.5%
COc1ccccc1NC(=O)CSc1nnc2c3ccccc3n(C)c2n1 -15.5%
CC(C)COc1ccccc1C1CC(=O)Nc2cc3c(cc21)OCO3 (stereo unspecified) -43%
Clc1cccc(-n2ncc3c(N4CCN(Cc5ccccc5)CC4)ncnc32)c1 -4.56%
COc1ccccc1Nc1ncnc2c1nc1n2CCCC1 -13.4%
Cc1ccc(-n2nc(C)c3c(C(=O)Nc4ccc(Br)c(C)c4)cc(C)nc32)cc1 -10.2%
COc1ccc(NC(=O)Cn2ccn(-c3ccccc3)c(=O)c2=O)cc1 -8.02%
Cc1ccc(-c2nc3cccnc3s2)cc1NC(=O)Cc1ccccc1 -7.61%
COc1ccc(CCC(=O)NCc2ccc3c(c2)CCN3C(=O)c2ccc(C)cc2)cc1 -11.6%
COc1cccc(-c2nc(SCC(=O)N3CCc4ccccc43)c3c(=O)n(C)c(=O)n(C)c3n2)c1 -7.03%
CCOCCCn1c(=N)c(C(=O)NCC2CCCO2)cc2c(=O)n3cc(C)ccc3nc21 (stereo unspecified) -12.1%
COC(=O)C1=C(C)NC(=O)C1(NC(=O)c1ccccc1C)C(F)(F)F (stereo unspecified) 2.68%
COCCNC(=O)CSc1nc(-c2ccc(C)cc2)nc2c1c(=O)n(C)c(=O)n2C -15.6%
COc1ccccc1NC(=O)c1c(NC(=O)c2ccccc2Cl)sc2c1CCC2 -11.2%
Cc1cccc(OCC(=O)Nc2ccc3nc(Nc4cccc(Cl)c4)cc(C)c3c2)c1 2.53%
CCOc1ccccc1CNC(=O)CN1C(=O)CCc2cc(S(=O)(=O)N3CCCCC3)ccc21 -27.2%
COc1ccc(CN2C(=O)C(NC(=O)c3ccccc3OC)(C(F)(F)F)N=C2c2ccccc2)cc1 (stereo unspecified) -13.1%
CCc1ccc(S(=O)(=O)c2nnn(-c3cccc(C)c3)c2N)cc1 -5.71%
CCc1ccc(NC(=O)CCn2cnc3ccccc3c2=O)cc1 -8.35%
CCOc1ccc(CNC(=O)CCCn2c(=O)c3cccn3c3ccc(F)cc32)cc1 -5.96%
CC(=O)N1CCc2c(sc3c2c(=O)n(Cc2ccccc2)c(=O)n3CC(=O)Nc2ccc(C)c(F)c2)C1 -15.5%
Cn1c(=O)c(=O)n(C)c2cc(NC(=O)c3ccccc3Br)ccc21 -17.6%
O=C(Nc1ccccc1C(F)(F)F)N1CCN(c2ccc3nnc(-c4ccc(F)cc4)n3n2)CC1 1.3%
O=C(CCn1cnc2onc(-c3ccc(F)cc3)c2c1=O)N1CCN(c2cccc(Cl)c2)CC1 -10.9%
Cc1ccc(NC(=O)Cn2c(-c3nonc3N)nc3ccccc32)cc1Cl -7.2%
CCC(C(=O)NCCCN(CC)CC)n1ncn2c(cc3occc32)c1=O (stereo unspecified) -10.2%
CCOc1ccc(CNC(=O)C2Cc3cc(S(=O)(=O)N4CCCCCC4)ccc3N2C(C)=O)cc1 (stereo unspecified) -3.31%
O=C(Nc1nnc(S(=O)(=O)N2CCOCC2)s1)c1ccc(F)cc1 -24.1%
N#Cc1cccc(NC(=O)c2ccc3c(c2)N(Cc2cccc(Cl)c2)C(=O)c2ccccc2S3(=O)=O)c1 -8.76%
O=C(c1ccc(F)cc1F)N1CCC(c2noc(-c3ccc(S(=O)(=O)N4CCCC4)cc3)n2)CC1 -2.86%
CCOc1ccc(OCC)c(NC(=O)C2CCN(c3cnccn3)CC2)c1 -9.12%
Cn1c(=O)oc2cc(S(=O)(=O)Nc3ccc(O)cc3)ccc21 -13.8%
COc1ccc(C2NC(=O)N(C)C3=C2C(=O)N(c2ccc(C)cc2)C3)cc1 (stereo unspecified) -20.1%
Cc1ccccc1-c1noc(-c2ccccc2OCC(=O)Nc2ccccc2[N+](=O)[O-])n1 -15.8%
CCc1ccc(NC(=O)CN(Cc2ccccc2)S(=O)(=O)c2ccc3nc(C)sc3c2)cc1 -7.02%
COc1ccc(NC(=O)CSc2nc(-c3ccccc3)nc3c2Cc2c(CO)cnc(C)c2O3)cc1Cl -7.3%
Cc1ccc(N2CCN(C(=O)c3noc4c3COc3ccc(C)cc3-4)CC2)c(C)c1 4.75%
Cc1ccc(CN(C(=O)COc2ccc(Br)cc2)c2ccccn2)o1 -5.06%
COc1ccc(Cl)cc1N(C)C(=O)C(=O)Nc1ccc2nc3n(c(=O)c2c1)CCCCC3 -27.8%
Cc1ccc(C)c(N2CCN(C(=O)C(C)n3c(C)c4cnn(-c5ccccc5)c(=O)c4c3C)CC2)c1 (stereo unspecified) -18%
COc1ccccc1C1C=C(c2ccc(Cl)cc2)Nc2nc(-c3ccc(Cl)cc3)nn21 (stereo unspecified) -10%
Cc1ccc2oc(=O)n(CCNC(=O)Nc3ccc(C)c(F)c3)c2c1 -4.84%
Cc1ccccc1CSc1nc2cccnc2n1Cc1ccc(C(=O)NCCc2cccs2)cc1 -7.48%
O=C(CSCc1cnn(-c2ccccc2)c1-n1cccc1)Nc1ccc(F)cc1F -12.9%
